This passage reports binding signal results from article PMC9911399, “Two distinct binding modes provide the RNA-binding protein RbFox with extraordinary sequence specificity”.

Where a chain is given by its changes, count along the chain named. The list shows a part of the results.

First the molecules themselves.
T1: RBFOX1 RRM (Homo sapiens, UniProt Q9NWB1 109-208)
T1 sequence: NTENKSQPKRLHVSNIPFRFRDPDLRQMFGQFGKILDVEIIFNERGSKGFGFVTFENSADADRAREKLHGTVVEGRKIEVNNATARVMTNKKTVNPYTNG

B1: AUUCAUG (DNA:RNA)
RNA: GGGAGACCGGAAUUCAGAUUGUCCAUUCAUGUUAAAUCCCGUCGUAGCCACCA
DNA 1: CAATCTGAATTCCGGTCTCCC
DNA 2: TGGTGGCTACGACGGGATT
B2: GAUUUGU (DNA:RNA)
RNA: B1 RNA with A25G, U26A, C28U, A29U, U30G, G31U
DNA 1: CAATCTGAATTCCGGTCTCCC
DNA 2: TGGTGGCTACGACGGGATT
B3: UCGCACU (DNA:RNA)
RNA: B1 RNA with A25U, U26C, U27G, U30C, G31U
DNA 1: CAATCTGAATTCCGGTCTCCC
DNA 2: TGGTGGCTACGACGGGATT
B4: UUUGACU (DNA:RNA)
RNA: B1 RNA with A25U, C28G, U30C, G31U
DNA 1: CAATCTGAATTCCGGTCTCCC
DNA 2: TGGTGGCTACGACGGGATT
B5: GAUCCAU (DNA:RNA)
RNA: B1 RNA with A25G, U26A, A29C, U30A, G31U
DNA 1: CAATCTGAATTCCGGTCTCCC
DNA 2: TGGTGGCTACGACGGGATT
B6: CGCCAGG (DNA:RNA)
RNA: B1 RNA with A25C, U26G, U27C, U30G
DNA 1: CAATCTGAATTCCGGTCTCCC
DNA 2: TGGTGGCTACGACGGGATT
B7: UUAUAUG (DNA:RNA)
RNA: B1 RNA with A25U, U27A, C28U
DNA 1: CAATCTGAATTCCGGTCTCCC
DNA 2: TGGTGGCTACGACGGGATT
B8: GUCGCGC (DNA:RNA)
RNA: B1 RNA with A25G, U27C, C28G, A29C, U30G, G31C
DNA 1: CAATCTGAATTCCGGTCTCCC
DNA 2: TGGTGGCTACGACGGGATT
B9: UAAACGA (DNA:RNA)
RNA: GGGAGACCGGAAUUCAGAUUGUCCUAAACGAUUAAAUCCCGUCGUAGCCACCA
DNA 1: CAATCTGAATTCCGGTCTCCC
DNA 2: TGGTGGCTACGACGGGATT

This test concerns the target T1, RBFOX1 RRM. Briefly: EMSA; HiTS-Eq, 1 nM pool, 10 min; buffer printed only for the single-RNA assays: 10 mM Tris pH 7.5, 150 mM NaCl, 3.4 mM EDTA, 0.001% NP-40, 30 C. The conditions noted are these: tags: His6 N-terminal (pET28a); label: 5' 32P. The essentials:
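Purified RbFox RRM (wild type or mutant) was equilibrated for 10 min in 50 µL with 1 nM of a 5′-radiolabelled pool of RNA with 7 randomized nucleotides, its flanks annealed to DNA oligonucleotides, across increasing protein concentrations. Free RNA was separated by 8% native PAGE, excised, reverse-transcribed, PCR-barcoded and sequenced on an Illumina HiSeq 2500. Relative association constants came from read-count changes of each variant against the control reaction, normalised to the cognate motif.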
Background: In EMSA bound probe runs differently from free probe, usually more slowly.
On to B1, for which the binding signal is 0.00382 KA relative to UGCAUGU.
The value for B2 was 0.0225 KA relative to UGCAUGU; that for B3 was 0.01 KA relative to UGCAUGU.
Under B4 stands 0.0155 KA relative to UGCAUGU; under B5, 0.00442 KA relative to UGCAUGU; under B6, 0.0105 KA relative to UGCAUGU.
The value for B7 was 0.00888 KA relative to UGCAUGU; that for B8 was 0.0169 KA relative to UGCAUGU; that for B9 was 0.0066 KA relative to UGCAUGU.
